Source: PubChem BioAssay (Tox21)
Where “and” joins values, the source holds several entries; their conditions need not be identical. Equal values may be shown once. Inconclusive means that the source gave no clear call. Such entries were picked first, then a sample of the others. A potency beside an inconclusive call is a rough fit, not a confirmed value. More than one record can exist for a structure, and the calls need not agree. Calls of active or inactive are those of the source. The call rests on the fitted dose curve; in most records, active means well fitted activation curve with a large enough effect in the repeat runs; inconclusive means weak or mixed curves; inactive means no such curve, though single readings can be large or run the other way.

Biological target: Aryl hydrocarbon receptor (Homo sapiens) (UniProt P35869)
UniProt P35869, sequence (P35869 whole entry, looked up): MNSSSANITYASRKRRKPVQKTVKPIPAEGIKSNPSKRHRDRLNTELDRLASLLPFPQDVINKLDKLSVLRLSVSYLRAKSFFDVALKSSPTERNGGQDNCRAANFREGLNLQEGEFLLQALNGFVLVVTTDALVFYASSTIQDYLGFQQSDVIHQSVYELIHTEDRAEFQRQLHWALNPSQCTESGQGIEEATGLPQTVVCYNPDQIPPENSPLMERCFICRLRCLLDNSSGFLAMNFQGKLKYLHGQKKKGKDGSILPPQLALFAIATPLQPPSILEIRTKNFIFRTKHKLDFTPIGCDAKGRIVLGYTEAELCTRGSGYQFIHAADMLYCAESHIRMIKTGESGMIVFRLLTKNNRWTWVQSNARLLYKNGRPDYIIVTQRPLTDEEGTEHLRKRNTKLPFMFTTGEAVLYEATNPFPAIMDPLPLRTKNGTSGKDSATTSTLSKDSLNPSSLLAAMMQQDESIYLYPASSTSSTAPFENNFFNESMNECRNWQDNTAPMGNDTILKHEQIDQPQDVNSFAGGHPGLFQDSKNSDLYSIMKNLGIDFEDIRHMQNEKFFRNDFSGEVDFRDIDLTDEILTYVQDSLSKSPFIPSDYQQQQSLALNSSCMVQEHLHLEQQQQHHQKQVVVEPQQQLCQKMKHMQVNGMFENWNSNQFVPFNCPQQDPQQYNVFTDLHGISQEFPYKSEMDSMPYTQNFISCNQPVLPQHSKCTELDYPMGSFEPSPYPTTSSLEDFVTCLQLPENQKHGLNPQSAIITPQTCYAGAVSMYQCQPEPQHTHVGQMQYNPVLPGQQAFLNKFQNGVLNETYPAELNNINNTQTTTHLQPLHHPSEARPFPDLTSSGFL
Assay: qHTS assay to identify small molecule that activate the aryl hydrocarbon receptor (AhR) signaling pathway (AID 743085); further: nearly all actives have a fitted effect of over 15% in size;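 on activation: HG2L7.5c1 human HepG2 liver cells with stably integrated DRE-driven firefly reporter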
Details: HepG2 AhR-luc (HG2L7.5c1), luciferase, 24 h; series mostly up to 70.3 µM; activation: at the top concentration
Description: U.S. Tox21 Program National Center for Advancing Translational Sciences [NCATS] NIH Chemical Genomics Center [NCGC] U.S. Environmental Protection Agency [EPA] National Institutes of Environmental Health Sciences [NIEHS] National Toxicology Program [NTP] U.S. Food and Drug Administration [FDA] Tox21 Assay overview: The Aryl hydrocarbon Receptor (AhR), a member of the family of basic helix-loop-helix transcription factors, is crucial to adaptive responses to environmental changes. AhR mediates cellular responses to environmental pollutants such as aromatic hydrocarbons through induction of phase I and II enzymes but also interacts with other nuclear receptor signaling pathways. A cell based HepG2-AhR-luc assay (HG2L7.5c1 cell line, developed by Dr. Michael S. Denison, University of California at Davis, was used to assess the activation of AhR. HepG2 (human hepatocellular carcinoma) cells were stably transfected with an Ah receptor-responsive firefly luciferase reporter gene plasmid containing 20 dioxin responsive elements and luciferase reporter gene. Increased luciferase activity can be used to identify the compounds that induce AhR activation.
Tox21 Assay Protocol Summary: 4000 cells in 5 uL/well were dispensed into white wall/solid bottom 1536-well plates using a Multidrop Combi (Thermo Fisher Scientific Inc., Waltham, MA) dispenser. After the assay plates were incubated at 37C for 5 h, 23 nL of compound or DMSO vehicle was transferred to the assay plates by a pintool station (Kalypsys, San Diego, CA). The plates were incubated at 37C for 24 hr. After 1 ul/well of CellTiter-Fluor reagent (Promega, Madison, WI) was added into the assay plates using a Flying Reagent Dispenser (FRD) (Aurora Discovery, CA), the assay plates were incubated at 37C for 30 min. The fluorescence intensity in the plates was measured using a ViewLux plate reader (PerkinElmer, Shelton, CT), followed by the addition of 4 uL of ONE-Glo Luciferase Assay reagent (Promega) using an FRD (Aurora Discovery). After the assay plates were incubated at room temperature for 30 min, luminescence intensity was measured using a ViewLux plate reader (Perkin Elmer).
On the % scale 0 is the no-effect control and ±100 the full control effect; potency means the concentration at half of the fitted maximal effect; tags describe the fitted curve by direction and shape.

| SMILES | Potency | activation |
| --- | --- | --- |
| c1ccc(Nc2cccc3ccccc23)cc1 | active: 49.2 µM and active: 54.5 µM |  |
| Cc1ccc2nc(-c3ccc(N)cc3)sc2c1S(=O)(=O)O | active: 4.26 µM |  |
| O=Nc1ccc(NO)cc1 | active: 31.9 µM |  |
| COc1ccc(-c2ccc3cc(C(=O)O)ccc3c2)cc1C12CC3CC(CC(C3)C1)C2 |  | inactive: 0.975% |
| c1ccc2occc2c1 | inconclusive: 54.5 µM [activator] |  |
| CC1CC(OC(=O)c2ccccc2O)CC(C)(C)C1 (stereo not given) | inactive |  |
| CC(C)(C)c1ccc(C(=O)CCCN2CCC(OC(c3ccccc3)c3ccccc3)CC2)cc1 | inconclusive: 37.6 µM [activator, partial curve, poor fit] |  |
| CCC(C)(C)c1ccc(CC(C)CN2C[C@@H](C)O[C@@H](C)C2)cc1 (stereo not given in full) | inconclusive: 29.8 µM [activator, single point] |  |
| CCOC(=O)C1=C(C)NC(C)=C(C(=O)OCC)C1c1ccccc1/C=C/C(=O)OC(C)(C)C | inconclusive: 3.76 µM [activator, partial curve] |  |
| CN(C)c1ccc(C(=C2C=CC(=[N+](C)C)C=C2)c2ccccc2)cc1 | inconclusive: 16.8 µM [activator, partial curve] |  |
| OC1C(O)C(O)C(O)C(O)C1O (stereo not given) | inactive |  |
| O=C(OC[C@H]1O[C@@H](OC(=O)c2cc(O)c(O)c(OC(=O)c3cc(O)c(O)c(O)c3)c2)[C@H](OC(=O)c2cc(O)c(O)c(OC(=O)c3cc(O)c(O)c(O)c3)c2)[C@@H](OC(=O)c2cc(O)c(O)c(OC(=O)c3cc(O)c(O)c(O)c3)c2)[C@@H]1OC(=O)c1cc(O)c(O)c(OC(=O)c2cc(O)c(O)c(O)c2)c1)c1cc(O)c(O)c(OC(=O)c2cc(O)c(O)c(O)c2)c1 | inactive and inconclusive: 20.8 µM [activator, single point] |  |
| Nc1cc(Cl)c(-c2cc(Cl)c(N)cc2Cl)cc1Cl | inconclusive: 15.3 µM [activator, partial curve] and inconclusive: 17.2 µM [activator, partial curve] |  |
| O=Nc1ccc(Nc2ccccc2)cc1 | inconclusive: 15.4 µM [activator] and inconclusive: 19.3 µM [activator, partial curve, poor fit] |  |
| CCCN(CCC)c1c([N+](=O)[O-])cc(C(F)(F)F)c(N)c1[N+](=O)[O-] | inconclusive: 68.4 µM [activator, partial curve, poor fit] |  |
| CCCOc1sc(C(=O)N2CCC(c3cc(CN)ccc3F)CC2)c(C)c1Br | inconclusive: 17.7 µM [activator, partial curve, poor fit] |  |
| Clc1ccccc1C(c1ccccc1)(c1ccccc1)n1ccnc1 | inconclusive: 12.7 µM [activator, partial curve, poor fit] and inconclusive: 4.33 µM [activator, full curve, poor fit] |  |
| CCCC(=O)c1cc(O)c(O)cc1O | inconclusive: 48.6 µM [activator] |  |
| CCCCCCCCCCCCN1CCCC1=O | inconclusive: 61.1 µM [activator, partial curve, poor fit] |  |
| CCCCCCC(C)Nc1ccc(Nc2ccccc2)cc1 (stereo not given) | inconclusive: 61.1 µM [activator, partial curve] |  |

| SMILES | Potency | activation |
| --- | --- | --- |
| c1ccc(-c2ccc(C(c3ccccc3)n3ccnc3)cc2)cc1 (stereo not given) | active: 1.06 µM |  |
| CCCCCCCCCCOCC(O)CN (stereo not given) | inconclusive: 33.5 µM [activator, partial curve, poor fit] |  |
| CCn1c2ccccc2c2cc(N)ccc21 | active: 9.59 µM and active: 9.69 µM and active: 3.06 µM |  |
| Nc1cc([N+](=O)[O-])ccc1O | inconclusive: 21.7 µM [activator, full curve, poor fit] and inconclusive: 30.5 µM [activator, partial curve] |  |
| c1ccc(OCCOc2ccccc2)cc1 | inconclusive: 61.1 µM [activator, partial curve, poor fit] and inconclusive: 48.6 µM [activator, partial curve, poor fit] |  |
| N#CSCSc1nc2ccccc2s1 | inconclusive: 68.6 µM [activator, single point] |  |
| CC/C(=C(\c1ccc(O)cc1)c1ccc(OCCN(C)C)cc1)c1ccccc1 |  | inactive: -3.73% [at 95 µM] |
| Nc1nc(N)c2nc(-c3ccccc3)c(N)nc2n1 | inconclusive: 23.7 µM [activator, partial curve] and inconclusive: 19.5 µM [activator, partial curve] and inconclusive: 17.2 µM [activator, partial curve] |  |
| Cn1cnc2c1c(=O)[nH]c(=O)n2C | inactive |  |
| C=CCc1cc(S(=O)(=O)c2ccc(O)c(CC=C)c2)ccc1O | inconclusive: 30.6 µM [activator, single point] |  |
| CC(C)(C)CC(C)(C)c1ccc(O)c(Cc2ccc(Cl)cc2Cl)c1 | inconclusive: 29.8 µM [activator, single point] |  |
| NC1(c2ccc(-c3nc4ccn5c(=O)[nH]nc5c4cc3-c3ccccc3)cc2)CCC1 | inconclusive: 13.3 µM [activator, single point] |  |
| Cc1cc(O)c2ccccc2c1O | active: 9.44 µM |  |
| CC(=O)N1CCN(c2ccc(OC[C@H]3CO[C@](Cn4ccnc4)(c4ccc(Cl)cc4Cl)O3)cc2)CC1 | inconclusive: 1.22 µM [activator, single point] |  |
| CCCCCCCCCCCCCC(=O)OC(C)C | inactive |  |
| CC1=CC(=O)c2ccccc2C1=O | active: 6.68 µM and active: 24.3 µM |  |
| CCCCC(CC)COC(=O)c1ccc(N(C)C)cc1 (stereo not given) | inactive and active: 27.3 µM |  |
| CC1=C(C(=O)OC(C)C)C(c2cccc([N+](=O)[O-])c2)C(C(=O)OC2CN(C(c3ccccc3)c3ccccc3)C2)=C(N)N1 (stereo not given) | inconclusive: 3.35 µM [activator, single point] |  |
| CCCCCCOc1cc(C)c(O)c(C)c1C | inconclusive: 61.9 µM [activator, partial curve] |  |
| O=c1n(CCO)c(=O)n(CCO)c(=O)n1CCO | inconclusive: 77 µM [activator, partial curve, poor fit] |  |
